# Assay results: PubChem BioAssay AID1347055 (National Center for Advancing Translational Sciences (NCATS), 2019)
# The campaign covered roughly 54,000 compounds. About 120 (0.22%) were called active. The inconclusive results got no clear call from the source; some entries with a clear call stand among them for comparison. Calls follow the shape of the dose curve; as a rule, active = well fitted inhibition curve with a large enough effect; inconclusive = small, poorly fitted or top-dose-only effect, or effect the other way; inactive = flat fitted curve, though single readings scatter. Potencies of inconclusive entries are left out as doubtful fits.
# Target: Fumarate hydratase, mitochondrial (Homo sapiens) (UniProt P07954)
# Test: Identification of activators of human fumarate hydratase by quantitative high-throughput screening; also: the screen sought activators but most active calls are inhibition curves; nearly all actives have a fitted effect of over 45% in size
# Settings: FH coupled MDH/diaphorase resazurin fluorescence, 15 min; activity change, negative = inhibition: at 79.9 µM (top of the series)
# % is scaled to controls: 0 for no effect and ±100 for the full control effect; potency is read from the fitted curve at half-maximal effect; tags tell the direction and shape of the fitted curve.
# Sequence of UniProt P07954 (P07954 whole entry, looked up): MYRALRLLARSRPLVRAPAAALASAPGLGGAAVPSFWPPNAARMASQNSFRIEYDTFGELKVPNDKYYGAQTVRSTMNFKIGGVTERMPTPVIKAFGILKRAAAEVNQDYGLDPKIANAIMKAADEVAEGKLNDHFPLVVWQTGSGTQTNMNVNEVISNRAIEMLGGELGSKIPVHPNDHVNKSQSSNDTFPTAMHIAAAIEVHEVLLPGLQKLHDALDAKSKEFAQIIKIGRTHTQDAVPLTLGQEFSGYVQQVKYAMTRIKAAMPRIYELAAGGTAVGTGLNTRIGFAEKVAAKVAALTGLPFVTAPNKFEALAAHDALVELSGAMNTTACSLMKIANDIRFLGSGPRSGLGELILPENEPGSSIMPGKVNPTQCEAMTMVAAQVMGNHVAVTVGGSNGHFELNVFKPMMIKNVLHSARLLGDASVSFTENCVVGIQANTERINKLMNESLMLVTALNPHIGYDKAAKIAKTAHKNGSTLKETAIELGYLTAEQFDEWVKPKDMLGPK
Compound,Potency,"activity change, negative = inhibition"
Cc1cccc(Cn2c(C)c(C)c3cc(C(=O)NCc4ccco4)ccc32)c1,"inconclusive [inhibitor, partial curve, poor fit]",
Cc1ccc(Sc2c(C)nn(C(=O)COc3ccccc3)c2C)cc1,"inconclusive [inhibitor, single point]",
COC1C=C([C@@H]2CC=C3[C@@]4(C)C(CC[C@]32C)[C@@]2(C)C=CC(=O)C(C)(C)C2C[C@H]4OC(C)=O)C(=O)O1 (stereo partly drawn),inactive,
Cc1ccc2c(=O)cc(C(=O)Nc3ccc(S(=O)(=O)Nc4nc(C)cc(C)n4)cc3)oc2c1,"inconclusive [inhibitor, single point]",
Cc1oc(-c2cccc(Cl)c2)nc1CN1CCC(C(=O)NCCCN2CCN(c3ccccc3F)CC2)CC1,inactive,
CCOc1ccc(/C=C/c2nc(C#N)c(N3CCCCC3)o2)cc1,"inconclusive [inhibitor, partial curve]",
CCCCN(CCCC)CCNC(=O)c1cn(CC)c2ccc(S(=O)(=O)N3CCc4ccccc4C3)cc2c1=O,"inconclusive [inhibitor, partial curve]",
Cc1ccc(NC(=O)CCn2nc(C)c(S(=O)(=O)N3CCCCC3)c2C)cc1Cl,"inconclusive [inhibitor, single point]",
CCCN(CCC)CCNC(=O)c1cc2c(-c3ccc(Cl)cc3)nn(C)c2s1,inactive,
COc1cc(-c2noc(CN3CCN(c4cccc(Cl)c4)CC3)n2)cc(OC)c1OC,"inconclusive [inhibitor, single point]",
Cc1ccc(-c2nc3nc(C)cc(N4CCN(c5cccc(C)c5)C(C)C4)n3n2)cc1 (stereo not drawn),"inconclusive [inhibitor, single point]",
CCOc1ccccc1NC(=O)CN1C(=O)COc2ccc(S(=O)(=O)Nc3ccccc3)cc21,"inconclusive [inhibitor, partial curve]",
COc1cc(C(=O)OCCCN2CCCN(CCCOC(=O)c3cc(OC)c(OC)c(OC)c3)CC2)cc(OC)c1OC,"inconclusive [inhibitor, single point]",
CCN(Cc1ccccc1)C(=O)CN1C(=O)CSc2ccc(S(=O)(=O)N(CC)CC)cc21,"inconclusive [inhibitor, single point]",
C=CCc1ccccc1OCCn1c(C2CC(=O)N(Cc3ccc(F)cc3)C2)nc2ccccc21 (stereo not drawn),"inconclusive [inhibitor, single point]",
CC1(C)C(N(O)C(=O)Nc2ccc(Cl)cc2)N(c2ccc(Cl)cc2)C(=O)N1CC(=O)NN=CC=Cc1ccc([N+](=O)[O-])o1 (stereo not drawn),inactive,
CCCc1c(C(C)C)nc(C(C)C)c([C@@H](C)O)c1-c1ccc(F)cc1O,"inconclusive [inhibitor, single point]",
O=c1[nH]c2ccc(NCc3ccc(-c4ccc(Cl)cc4)o3)cc2[nH]1,"inconclusive [inhibitor, partial curve]",
COc1ccc(C2c3c(oc4ccc(Cl)cc4c3=O)C(=O)N2CCCN(C)C)cc1OC (stereo not drawn),,inconclusive: -32.6% [inhibitor]
Cc1nc(-n2nc(C)c(Cc3ccc(Cl)cc3)c2C)sc1C(=O)N1CCCCC1C (stereo not drawn),"inconclusive [inhibitor, partial curve, poor fit]",
O=C(CSCc1ccccc1Cl)NCc1ccc(Cl)c(Cl)c1,"inconclusive [inhibitor, single point]",

Compound,Potency,"activity change, negative = inhibition"
Cc1ccc(C(=O)N2CCN(c3ccc(F)cc3)CC2)cc1NC(=O)c1nsc2ccccc12,"inconclusive [inhibitor, partial curve, poor fit]",
Cc1c(Cl)cccc1NC(=O)CSc1ncc(S(=O)(=O)c2ccc(C(C)C)cc2)c(=O)[nH]1,"inconclusive [inhibitor, partial curve, poor fit]",
Cc1cc(C)cc(NC(=O)c2ccc3c(O)c(S(=O)(=O)c4ccccc4)c(=O)[nH]c3c2)c1,"inconclusive [inhibitor, single point]",
CCOC(=O)c1[nH]c(C)c(CCC(=O)NCc2cccc(C)c2)c1C,"inconclusive [inhibitor, partial curve, poor fit]",
CCNC(=O)C1CCCN(c2nnc(C)c3c(C)n(-c4ccc(C)cc4)nc23)C1 (stereo not drawn),"inconclusive [inhibitor, partial curve]",
Cc1cc2ncc(C(=O)NCC(C)(C)NCC(=O)N3CCC[C@H]3C#N)cn2n1,inactive,
Cc1c(C(=O)NCc2ccc(F)cc2)sc2nc(-c3ccccc3)cn12,,inconclusive: -32.3% [inhibitor]
c1csc(-c2nc3ccccn3c2Nc2ccc3c(c2)OCCO3)c1,inactive,
CCOC(=O)c1cccc(NC(=O)c2cc3c(=O)n(Cc4cccnc4)ccc3nc2C)c1,"inconclusive [inhibitor, partial curve, poor fit]",
Cc1oc(-c2ccccc2)nc1CNS(=O)(=O)c1ccc(Cl)cc1,inactive,
CC(C)Cn1c(-c2ccc(S(=O)(=O)N3CCCC3)cc2)csc1=Nc1ccccc1,inactive,
O=C(CCSCc1cnn(-c2ccccc2)c1-n1cccc1)NCc1ccc(Cl)cc1,"inconclusive [inhibitor, single point]",
Cc1cccc(CSc2ccc3nnc(CCNS(=O)(=O)c4ccccc4)n3n2)c1,"inconclusive [inhibitor, single point]",
COc1ccc(C(=O)Nc2ccc3nc(N4CCCCC4)cc(C)c3c2)cc1OC,"inconclusive [inhibitor, single point]",
O=C(Nc1ccc(OC(F)(F)F)cc1)C(NS(=O)(=O)c1cccc2nsnc12)c1ccccc1 (stereo not drawn),"inconclusive [inhibitor, single point]",
CCCCOC(=O)c1ccc(NC(=O)c2cc(=O)c3ccccc3o2)cc1,inactive,
CCc1ccc(Cn2c(CNS(=O)(=O)c3ccc4c(c3)CCCC4)nc3cccnc32)cc1,"inconclusive [inhibitor, partial curve, poor fit]",
O=C(Cc1ccc(NC(=O)N2CCCCc3ccccc32)cc1)Nc1ccccc1Br,"inconclusive [inhibitor, partial curve]",
COc1ccc(-c2nnc(C3CCN(C(=O)c4ccccc4F)CC3)o2)cc1,inactive,
COc1ccc(C2Sc3ccccc3NC3=C2C(=O)c2ccccc23)c(OC)c1OC (stereo not drawn),"inconclusive [inhibitor, single point]",
O=C(NCCc1csc(-c2ccc(Cl)cc2)n1)c1cccs1,"inconclusive [inhibitor, single point]",

Compound,Potency,"activity change, negative = inhibition"
O=S(=O)(Nc1ccc2oc3c(c2c1)CCCC3)c1cc(Cl)ccc1Cl,"inconclusive [inhibitor, partial curve, poor fit]",
COc1ccc(OCCn2cc(C(=O)C3CCCCC3)c3ccccc32)cc1,"inconclusive [inhibitor, single point]",
O=c1nc(-c2ccccn2)sc2ccccc12,inactive,
CCn1c(=O)c2cc(C(=O)NCCc3cc(OC)ccc3OC)sc2c2ccccc21,"inconclusive [inhibitor, partial curve, poor fit]",
CCOc1ccc(CCNC(=O)c2cc3c(=O)[nH]c4ccc(C)cc4c3s2)cc1OCC,"inconclusive [inhibitor, partial curve]",
O=Cc1ccc(O)c(O)c1O,active: 15.5 µM,
CCc1ccc2c(c1)NC(c1cccs1)=NC(c1ccc(F)cc1)=N2,"inconclusive [inhibitor, single point]",
COc1cc2[nH]c(=O)n(CCCCCC(=O)N3CCN(c4cccc(C(F)(F)F)c4)CC3)c(=O)c2cc1OC,"inconclusive [inhibitor, single point]",
COc1ccccc1NC(=O)Cn1nnc(C(=O)NCc2ccc3c(c2)OCO3)c1N,inactive,
CCOC(=O)c1oc2c(c1C)-c1nn(Cc3ccc(Cl)cc3)cc1CC2,active: 31.6 µM [activator],
CCc1ccc(CNCc2c(C(=O)O)n(Cc3cccc(F)c3)c3cc(OC)ccc23)cc1,inactive,
CCOC(=O)c1cccc(Nc2c3c(nc4ccccc24)CCC3)c1,inactive,
Cc1cccc(NC(=O)c2c(NC(=O)C(F)(F)F)sc3c2CCCCC3)c1,"inconclusive [inhibitor, partial curve]",
COc1cc(N2CCC(N3CCN(C)CC3)CC2)ccc1Nc1ncc(Cl)c(-c2c[nH]c3ccccc23)n1,"inconclusive [inhibitor, partial curve]",
CCN(CC)C(=O)CSc1nc(-c2ccccc2F)nc2c1Cc1c(CO)cnc(C)c1O2,inactive,
COc1ccccc1OCC(=O)NCC(c1ccc(Cl)cc1)N1CCCCC1 (stereo not drawn),"inconclusive [inhibitor, single point]",
CCOc1ccc(-c2cccc(NS(=O)(=O)c3c(C)cc(C)cc3C)c2)nn1,"inconclusive [inhibitor, partial curve]",
O=C(c1ccc(F)cc1)N1c2nc(-c3ccco3)nn2C2(CCCCC2)[C@@H]2CCCC[C@@H]21,inactive,
CC(C)N(C(=O)CSc1nc2ccc(Cl)cc2[nH]1)c1ccccc1,"inconclusive [inhibitor, partial curve]",
NS(=O)(=O)Nc1ncnc(OCCOc2ncc(Br)cn2)c1-c1ccc(Br)cc1,inactive,
COc1ccccc1CNC(=O)CCC1N=C2c3ccccc3N=C(SCc3cccc(Cl)c3)N2C1=O (stereo not drawn),"inconclusive [inhibitor, partial curve, poor fit]",
